# Results published in PubChem BioAssay AID686978 (National Center for Advancing Translational Sciences (NCATS), 2013).
# “And” between values parts separate entries of the source, which are not always exact repeats. Equal values may be shown once. Hit rate of the full screen: of about 420,000 compounds, about 64,000 (15%) were called active. Inconclusive means that the source gave no clear call. Such entries were picked first, then a sample of the others. The call rests on the fitted dose curve; in most records, active means well fitted inhibition curve with a large enough effect; inconclusive means small, poorly fitted or top-dose-only effect; inactive means flat fitted curve, though single readings scatter. Potencies of inconclusive entries are doubtful fits and often do not repeat.
# Test: qHTS for Inhibitors of human tyrosyl-DNA phosphodiesterase 1 (TDP1): qHTS in cells in absence of CPT; further: nearly all actives have a fitted effect of over 55% in size
# Details: DT40 Tdp1-/- hTDP1 cells, no CPT, ATP luminescence, 48 h; activity change, negative = growth inhibition: at 46.2 µM (top of the series) unless noted
# Method in brief: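 Compound effects on proliferation are scored in DT40 Tdp1-/-;hTDP1 cells in the absence of CPT. ATP levels (CellTiter-Glo luminescence) are recorded after a ≥48 hr, 37 °C incubation.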
# On the % scale 0 is the no-effect control and ±100 the full control effect; potency means the concentration at half of the fitted maximal effect; tags describe the fitted curve by direction and shape.
SMILES,Potency,"activity change, negative = growth inhibition"
CC(C)CC(=O)n1nc(-c2ccco2)nc1NCc1ccc(Cl)cc1,inactive,
COc1ccc(OC)c(N/C(C)=C/C(=O)c2ccncc2)c1,"inconclusive: 29.1 µM [inhibitor, single point]",
CCOC(=O)C1=C(CSc2nc3c(cc2C#N)CN(C)CC3)OC(N)=C(C#N)C1c1ccncc1 (centres undefined),"inconclusive: 32.6 µM [inhibitor, single point]",
COc1cc(-c2nn3c(COc4ccccc4)nnc3s2)cc(OC)c1OC,inactive,
COc1cccc(CN2CCN(C(=O)c3cc(-c4cccnc4)nc4ccc(C)cc34)CC2)c1,active: 11.6 µM,
CCCCn1c(N)c(N(CCC(C)C)C(=O)c2sc3nc4n(c(=O)c3c2C)CCC4)c(=O)[nH]c1=O,inactive,
CC(C)OC(=O)c1ccc(NC(=O)CSc2nc(-c3cccs3)cc(C(F)(F)F)n2)cc1,active: 29.1 µM,
O=C(CNC(=O)c1ccccc1O)N/N=C/c1cc(Br)ccc1OC(=O)/C=C/c1ccco1,active: 4.61 µM,
CCOC(=O)C1CCCN(c2oc(-c3ccc(OC)cc3)nc2C#N)C1 (centres undefined),"inconclusive: 25.9 µM [inhibitor, single point]",
COc1ccc(CN2CCC[C@]3(N[C@H](c4ccc(C)cc4)[C@@H]4C(=O)N(Cc5ccccc5)C(=O)[C@@H]43)C2=O)cc1,"inconclusive: 29.1 µM [inhibitor, single point]",
Cc1cccc(C(=O)Nc2c(C(=O)N(C)C)cnn2-c2ccccc2)c1,inactive,
CC(=O)Oc1cc2c(c(C)c1OC(C)=O)CC=C1[C@]3(C)CC[C@]4(C)CC[C@@](C)(C(=O)O)CC4[C@]3(C)CC[C@]12C (some centres undefined),active: 4.61 µM,
C#CC(C)OCC1CNC(=S)O1 (centres undefined),inactive,
Cc1ccc(C)c(NC(=O)C(=O)NCCc2c[nH]c3ccccc23)c1,"inconclusive: 29.1 µM [inhibitor, single point]",
CCN(CC)C(=O)c1sc2c(c1C)c(=O)n(Cc1ccccc1)c(=O)n2CC(=O)Nc1ccc(OC)cc1,inactive,
O=C1C2C3CCC(O3)C2C(=O)N1c1cc(OCC(F)F)cc([N+](=O)[O-])c1 (centres undefined),inactive,
Cc1ccc2c(c1)C(=NC1CCCCC1)c1cc3ccccc3nc1-2,"inconclusive: 29.1 µM [inhibitor, single point]",
O=C(OCC(O)CO)c1ccccc1Nc1ccnc2cc(Cl)ccc12 (centres undefined),"inconclusive: 12.8 µM [inhibitor, single point] and inconclusive: 18.4 µM [inhibitor, single point] and inconclusive: 29.1 µM [inhibitor, single point]",
CC1CCN(C(=O)CSc2nnc(Cc3ccccc3)o2)CC1,"inconclusive: 9.2 µM [inhibitor, partial curve]",
Cc1ccccc1CNC(=O)Cc1csc2ccccc12,"inconclusive: 20.6 µM [inhibitor, partial curve]",
CC(=O)Nc1ccc(-c2csc(NC(=O)C3=COCCO3)n2)cc1,"inconclusive: 16.4 µM [inhibitor, partial curve]",
O=C1C=C(c2ccccc2)C[C@H](c2cccs2)[C@H]1n1cnc([N+](=O)[O-])c1,"inconclusive: 16.4 µM [inhibitor, single point]",

SMILES,Potency,"activity change, negative = growth inhibition"
C=CCn1c(COc2ccc(F)cc2)nnc1SCC(=O)NC1CC1,inactive,
COc1cc2nc(N3CCCN(C)CC3)nc(N(C)C)c2cc1OC,active: 17.8 µM,
CCc1nc2c(OCc3ccc(C(F)(F)F)cc3)cccn2c1N(C)C(=O)c1ccc(C)cc1,active: 23.1 µM,
CCOC(=O)Cn1ccc(NC(=O)c2ccc3c(c2)OCO3)n1,"inconclusive: 29.1 µM [inhibitor, single point]",
CCOc1ccccc1NC(=O)CSc1nc2ccccc2nc1N1CCCC1,"inconclusive: 29.1 µM [inhibitor, single point]",
Cc1ccc(C(=O)N2CCCC(CCC(=O)N3CCN(c4ccccn4)CC3)C2)s1 (centres undefined),"inconclusive: 20.6 µM [inhibitor, partial curve]",
CC(C)n1c(=O)c2ccccc2n1Cc1cn(Cc2cccs2)nn1,inactive,
CCOC(=O)C1=C(c2ccccc2)NC(=S)NC1c1cc([N+](=O)[O-])ccc1OC (centres undefined),,inconclusive: -31.7% [inhibitor]
COc1cc(C(=S)N2CCC(Cc3ccccc3)CC2)ccc1OCC(N)=O,"inconclusive: 29.1 µM [inhibitor, single point]",
CC(C)C[C@@H](CN)NC(=O)c1nc[nH]c1C(=O)N[C@@H](CC(=O)O)C(=O)CNC[C@H](C)NC(=O)c1nc[nH]c1C(=O)N[C@@H](CC(=O)O)C(=O)O,inactive,
COc1ccccc1NC(=O)CCNS(=O)(=O)c1ccc2c(c1)CCN2C(=O)C1CC1,"inconclusive: 16.4 µM [inhibitor, single point]",
Cc1cc(C)n(CC(=O)NNC(=O)c2cccc(C(F)(F)F)c2)n1,inactive,
COc1ccccc1NC(=S)N(c1ccccc1)C(C)C,inactive,
Cc1ccc(OCC(=O)Nc2nc(C)c(Cl)cc2Cl)c([N+](=O)[O-])n1,inactive,
CC(=O)c1ccc(NC(=O)CSc2ccc(-c3ccco3)nn2)cc1,"inconclusive: 2.06 µM [inhibitor, single point]",
CCN(Cc1ccccc1)S(=O)(=O)c1ccc(C(=O)Nc2nnc(C3CC3)o2)cc1,active: 16.4 µM,
COc1cc(OC)cc(-c2oc(=O)c3cc(OC)c(OC)cc3c2C#CCCCO)c1,"inconclusive: 1.84 µM [inhibitor, full curve]",
O=C(Nc1ccccc1)N1CCc2scc[n+]2-c2ccccc21,active: 11.6 µM,
CCOc1ccc(/C=N/NC(=O)c2ccccc2NC(=O)c2ccc(OC)cc2)cc1,"inconclusive: 20.6 µM [inhibitor, single point]",
CCOC(=O)N1CCN(S(=O)(=O)c2ccc(C(=O)Nc3nc4ccc(F)cc4s3)cc2)CC1,active: 6.51 µM,
Cc1c(CNCCCc2ccccc2)c(C(=O)O)c(C)n1Cc1ccccc1,inactive,
COc1ccc(C2=CC(c3ccc(OC)c(OC)c3)n3nnnc3N2)c(OC)c1 (centres undefined),"inconclusive: 18.4 µM [inhibitor, single point]",
